In all, about 340,000 compounds went through this assay and about 6,900 (2%) were called active. Cut-off read from the data, not from the text of the source: active = inhibition above about 30%; inactive = below that, where a call was filed. The entries are a selection whose mix differs from that of the whole data set. Where no call is shown, the source filed none.

Sequence of UniProt P14416 (P14416 whole entry, looked up): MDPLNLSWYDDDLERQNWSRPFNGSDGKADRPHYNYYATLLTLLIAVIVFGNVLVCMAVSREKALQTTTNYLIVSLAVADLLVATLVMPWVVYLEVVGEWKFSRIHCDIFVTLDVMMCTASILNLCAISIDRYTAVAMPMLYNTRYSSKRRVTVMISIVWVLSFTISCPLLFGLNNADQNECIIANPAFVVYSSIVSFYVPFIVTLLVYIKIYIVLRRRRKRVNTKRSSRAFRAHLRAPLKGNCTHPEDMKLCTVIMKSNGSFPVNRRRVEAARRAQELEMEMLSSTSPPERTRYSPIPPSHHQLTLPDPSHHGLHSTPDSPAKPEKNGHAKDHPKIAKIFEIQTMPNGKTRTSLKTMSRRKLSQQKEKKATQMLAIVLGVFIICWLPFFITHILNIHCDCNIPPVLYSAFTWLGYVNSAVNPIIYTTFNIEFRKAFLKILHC

For the assay, the target named is D(2) dopamine receptor (Homo sapiens) (UniProt P14416). The assay is described as follows: HTS Assay for Allosteric Antagonists of the Human D2 Dopamine Receptor: Primary Screen for Antagonists. Note: 0% is about no effect. The settings on record: HEK293 TREx D2 cells, calcium flux, dopamine EC80; at 10 µM; stronger effect = higher value. In outline:
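In this primary screen, negative modulation is detected by tracking calcium flux after an EC80 dopamine challenge in inducible HEK293 T-REx D2 cells preexposed to test compound for 180 s.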
In general terms: Calcium flux is commonly read through the fluorescence of an indicator in the cells.
For `Cc1cccc(CN2C(=O)c3ccccc3Sc3ccc(C(=O)NC4CCCCC4)cc32)c1`, the inhibition is -4.79%.
The value for `Cn1c(SCC(=O)NCCNC(=O)CSc2nnc(C(F)(F)F)n2C)nnc1C(F)(F)F` was active: 32.6%.
The value for `Cc1cccc(CNC(=O)C2CCC(CNS(=O)(=O)c3ccc4c(c3)CCCC(=O)N4)CC2)c1` (stereo not given) was 25%; that for `Cc1cc(=O)oc2c(C)c(OCC(=O)Nc3cccnc3)ccc12` was active: 35.8%.
The value for `COc1ccc(OC(=O)c2nc(SCc3ccccc3F)ncc2Cl)cc1` was -1.34%; that for `Cc1ccc(NC(=O)Cn2c(=O)n(Cc3ccco3)c(=O)c3oc4ccccc4c32)cc1C` was 4.56%.
As to `CN(C)c1ccc(NC(=O)CCN2CCN(c3ccccn3)CC2)cc1`, the inhibition was active: 84.6%.
Then `CCC(C)NC(=O)c1nn(-c2ccc(C)cc2)nc1CO` (stereo not given), with 12.2%.
For `CCn1c(SCC(=O)Nc2ccccc2C(=O)OC)nc2ccsc2c1=O`, the inhibition stood at 7.88%.
Regarding `Cc1ccc(-c2cc(C(=O)Oc3ccc(C#N)cc3)no2)cc1`, the inhibition was -3.53%.
Regarding `CCC(=O)NNc1ncnc2c1cnn2-c1ccc(C)c(Cl)c1`, the inhibition amounted to 19.7%.
Then `Cc1nc2ccccc2c(=O)n1-c1ccc(NC(=O)c2ccccc2[N+](=O)[O-])cc1`, with 19.9%; and `CCN(Cc1ccccc1)C(=O)Cn1c(=O)n(-c2ccccc2)c(=O)c2c1c1cc(C)ccc1n2C`, with -5.21%.
Regarding `CCc1ccc(CSc2nc(-c3ccccc3F)nc3c2Cc2c(CO)cnc(C)c2O3)cc1`, the inhibition is -0.443%.
As for `CC(CCc1ccccc1)NC(=O)Cn1ncc2c3ccccc3n(Cc3ccccc3F)c2c1=O` (stereo not given), the inhibition is 6.6%.
The value for `CCN(C(=O)C1CCN(S(=O)(=O)c2cc(Br)cc3c2N(C(C)=O)CC3)CC1)c1cccc(C)c1` was -0.0327%.
Turning to `O=C(CSc1nccn1-c1cccc(Cl)c1)Nc1ccc2c(c1)OCO2`, the inhibition was -12.9%.
As to `O=C1CC(N2CCN(c3cccc(C(F)(F)F)c3)CC2)C(=O)N1c1ccccc1F` (stereo not given), the inhibition was active: 32.7%.
In the case of `CCC(=O)C1=C(c2ccc(F)cc2)N(C(=O)CC)n2c(nnc2-c2ccc(OC)cc2)S1`, the inhibition was -3.37%.
Then `COc1ccc(-c2cnc(C)o2)cc1S(=O)(=O)Nc1ccc(NC(C)=O)cc1`, with -11%; and `Cn1c(=O)oc2cc(S(=O)(=O)CCC(=O)N3CCN(c4ccccc4F)CC3)ccc21`, with 13.3%.
The value for `O=C(CCn1c(=O)c2cccn2c2cccnc21)N1CCN(c2ccccc2)CC1` was -3.25%.
The value for `CCn1cc(C(=O)Nc2cccc(Cl)c2)c2cc(OC)c(OC)cc2c1=O` was -11.8%; that for `Cc1cc(C)cc(NC(=O)CSc2nc3c(c(=O)[nH]2)CN(Cc2ccc(F)cc2)CC3)c1` was 1.72%; that for `COc1ccccc1N1CCN(C(=O)Cn2c(=O)n3nc(-c4cccc(F)c4)nc3c3ccccc32)CC1` was -7.16%.
For the compound `Brc1ccc(-c2noc(COc3ccc4c(c3)CCC4)n2)o1`, the inhibition was active: 42.7%.
Take `Cc1ccccc1COC(=O)c1nn(-c2ccccc2)nc1N`: the inhibition is -4.64%.
With `CCCCN(CC)CCNC(=O)C1CCN(S(=O)(=O)c2cccc3nsnc23)CC1`, the inhibition turned out to be 9.11%.
Regarding `CCNC(=O)c1ccc(NC(=O)N2CCCCc3ccccc32)cc1`, the inhibition turned out to be 11.5%.
Turning to `O=C(COc1ccc([N+](=O)[O-])cc1)Nc1cccc(C(=O)Nc2ccccc2C(=O)O)c1`, the inhibition is active: 52%.
Then `COc1ccc(Cc2nn3c(Cn4nnc5ccccc54)nnc3s2)cc1`, with active: 39%; and `CC(=O)c1ccc(N2CCN(S(=O)(=O)c3ccc(-c4coc(C)n4)cc3)CC2)cc1`, with 10%; and `COc1ccc(-c2noc(CCC(=O)NCCCN3CCN(c4ccccc4F)CC3)n2)cc1`, with active: 84%.
Take `CCOc1cc(-c2ccc(OC(=O)c3ccccc3Cl)c(OC)c2)cc(=O)c2c(C)oc(C)c12`: the inhibition is -8.68%.
`Cc1cccc(C)c1NC(=O)c1ccc2c(c1)nnn2C1CCCC1`: the inhibition is -6.54%.
Turning to `CCOC(=O)c1cc2occc2n1Cc1c(F)cccc1Cl`, the inhibition is active: 31.2%.
Consider `COc1ccc(-c2nn3c(=O)cc(CN4CCN(C(=O)/C=C/c5ccccc5)CC4)nc3s2)cc1`, for which the inhibition worked out at 8.64%.
Take `COc1ccc(C2CC(=O)Nc3c2c(=O)[nH]c2nc4ccccc4n32)cc1` (stereo not given): the inhibition came to 19.7%.
For `O=C(/C=C/c1ccccc1Cl)N1CCC(c2nc3ccccc3o2)CC1`, the inhibition was -14.1%.
On to `CCOc1ccc(NC(=O)c2sc3nc4n(c(=O)c3c2C)CCC4)cc1`, for which the inhibition was -5.14%.
With `COC(=O)N1CCCc2cc(S(=O)(=O)NCc3ccccc3)ccc21`, the inhibition was -14.6%.
For `COc1cc(NC(=O)CN2CCN(c3ccc(F)cc3)CC2)cc(OC)c1`, the inhibition was -28.3%.
For `Cc1nn(CC(=O)NC2CCC(C)CC2)c(=O)c2c1sc1ccccc12` (stereo not given), the inhibition is 6.08%.
For the compound `CCn1cc2nc(SCC(=O)Nc3cc(OC)cc(OC)c3)n(Cc3ccc(Cl)cc3)c(=O)c2n1`, the inhibition was found to be 13.2%.
In the case of `Cc1cc(C)c(Nc2ncnc3c2cnn3C)c(C)c1`, the inhibition was -4.94%.
In the case of `Cc1ccc(NC(=O)CCc2c(C)nc3c(-c4ccc(F)cc4)c(C)nn3c2C)cc1F`, the inhibition stood at 17.7%.
As to `Cc1ccc2oc(-c3ccc(NC(=O)CCC(=O)O)cc3)nc2c1`, the inhibition came out at 21.8%.
`Cc1ccc(CCNC(=O)Cc2ccc(NC3=NC4CS(=O)(=O)CC4S3)cc2)cc1` (stereo not given): the inhibition was active: 37.7%.
The value for `COc1cc(NC(=O)CSc2nc3ncccc3o2)cc(OC)c1` was -13.1%; that for `COc1ccc(CCNC(=O)Cc2c(C)c3cc4c(C(C)(C)C)coc4c(C)c3oc2=O)cc1` was 2.46%.
For `OC(COCc1cccs1)CN1CCN(c2cccc(C(F)(F)F)c2)CC1` (stereo not given), the inhibition is active: 50.4%.
For `Cc1ccc(CNC(=O)c2cc3c(=O)n(Cc4ccco4)ccc3nc2C)cc1`, the inhibition is -15.8%.
As for `COc1ccc(CC(C)N2CCN(c3ccccc3)CC2)cc1OC` (stereo not given), the inhibition was active: 66.2%.
The value for `Cc1ccc(C)c(Nc2cc(C(=O)NC3CCCC3)c3ccccc3n2)c1` was -2.79%.
As for `O=C(NCC1CCCO1)c1nnc(Cc2ccc(F)cc2)o1` (stereo not given), the inhibition is active: 38.9%.
For the compound `COc1ccc(NC(=O)CC2C(=O)N(c3ccc(OC)cc3)C(=O)N2CCC2=CCCCC2)cc1` (stereo not given), the inhibition amounted to 18.8%.
In the case of `CCOC(=O)c1c(NC(=O)COc2ccc(Cl)cc2C)sc2c1CCCCC2`, the inhibition was -9.96%.
Then `Cc1ccc(CNC(=O)CS(=O)(=O)c2cccc3nsnc23)cc1`, with -1.75%; and `COc1cccc(NC(=O)Cn2c(=O)n(CCC(=O)NCCc3ccc(Cl)cc3)c(=O)c3ccccc32)c1`, with 3.87%.
`COc1ccc(-c2nc(CS(=O)(=O)CC(=O)NCc3ccccc3Br)c(C)o2)cc1`: the inhibition stood at 3.3%.
Consider `COc1ccc(C(=O)CCN2CCN(c3ccc(OC)cc3)CC2)cc1`, for which the inhibition was active: 31.1%.
The value for `O=C(NCCCN1CCCCCC1)c1ccc2c(c1)sc1nc(-c3ccccc3)cn12` was 3.03%; that for `Cc1nc2cc(-c3ccccc3)nn2c(C)c1CCC(=O)Nc1ccc(F)cc1F` was -0.0044%; that for `CCC(C(=O)Nc1ccc(C)c(C)c1)n1c(=O)c(C(F)(F)F)nc2ccccc21` (stereo not given) was 1.78%.
On to `CCOc1ccc(NC(=O)CCc2c(C)nn(-c3ccc(N4CCCC4)nn3)c2C)cc1`, for which the inhibition was 2.23%.
For the compound `Cc1ccc(CNC(=O)CCCn2c(=O)c3ccccc3n(CC(=O)Nc3ccc(C)cc3)c2=O)cc1`, the inhibition was -3.51%.
Turning to `CCOc1ccc(CCNC(=O)CS(=O)(=O)Cc2nc(-c3ccc(OC)cc3)oc2C)cc1`, the inhibition amounted to 25.4%.
Turning to `COc1ccc(Cn2c(=O)n(Cc3ccco3)c(=O)c3oc4ccccc4c32)cc1`, the inhibition is 0.893%.
In the case of `Cc1cccc2sc(N(CCN(C)C)C(=O)c3ccc4c(c3)OCCO4)nc12`, the inhibition amounted to 19.8%.
Then `Cc1nc2scc(C)n2c(=O)c1S(=O)(=O)NCC1CCN(Cc2ccc(F)cc2)CC1`, with active: 34.2%; and `Cc1ccccc1OCc1nc2ccccc2c(=O)n1/N=C/c1cn[nH]c1-c1ccccc1`, with active: 56.7%.
The value for `Cc1cc(OC(C)C(=O)Nc2cccc(-c3nc4ccccc4o3)c2)cc(C)c1Cl` (stereo not given) was 11.8%.
Then `O=C(CSc1nnc(-c2ccco2)n1-c1ccccc1)N1CCN(C(=O)c2ccco2)CC1`, with active: 65.1%.
For `CC(C)N(C(=O)COC(=O)[C@@H]1CC(O)CN1S(=O)(=O)c1ccc(C(C)(C)C)cc1)C(C)C` (stereo not given in full), the inhibition is active: 37.8%.
As to `COc1ccc(-c2nc(CSCC(=O)N3CCN(c4cc(Cl)ccc4C)CC3)c(C)o2)cc1`, the inhibition was -20.6%.
`Cc1ccc(Cn2c(C)c3cnn(CC(=O)NCc4ccccc4)c(=O)c3c2C)cc1`: the inhibition is -5.51%.
As for `CC(=O)N1CCc2cc(S(=O)(=O)CCC(=O)Nc3ccc(C)cc3Br)ccc21`, the inhibition was 0.723%.
As to `CCN(CC)c1ccc(NC(=O)c2cnn(-c3ccccc3)c2-n2cccc2)c(C)c1`, the inhibition is 3.77%.
Consider `Cc1cccc(NS(=O)(=O)c2ccc3c(c2)CC(C)N3C(=O)C2CCC2)c1C` (stereo not given), for which the inhibition worked out at 28.2%.
`Cc1ccc(-c2nc3ncccn3c2Nc2ccc3c(c2)OCCO3)cc1`: the inhibition came to 0.184%.
The value for `O=C(CCS(=O)(=O)c1ccc(Br)cc1)Nc1ccc(F)cc1F` was -12.1%; that for `COc1cccc2c1cc1c(=O)n(CC(=O)N3CCN(c4ccccc4)CC3)nc(C)n12` was -23%; that for `CCOc1ccc(N2CC(c3nc4ccccc4n3CCOc3ccccc3OC)CC2=O)cc1` (stereo not given) was -0.414%.
As for `O=C1CC(c2nc(-c3ccccc3)no2)CN1c1ccccc1` (stereo not given), the inhibition came to 2.6%.
In the case of `CCOC(=O)c1ccc(N2C(=O)c3n[nH]c(-c4ccco4)c3C2c2cccc(OC)c2)cc1` (stereo not given), the inhibition amounted to 13.4%.
On to `CC1CCN(CCOCCOc2ccccc2-c2ccccc2)CC1`, for which the inhibition was active: 55.8%.
Consider `Cc1oc(-c2ccc(C(=O)NCc3cccc(F)c3)cc2)nc1COc1ccccc1`, for which the inhibition is -12.8%.
Take `COCCCNC(=O)c1ccc(-c2nc(CS(=O)(=O)c3ccc(C)cc3)c(C)o2)cc1`: the inhibition worked out at 1.46%.
For the compound `COc1ccc(NC(=O)CCc2c(C)nn(-c3ccc(N4CCCCC4)nn3)c2C)cc1Cl`, the inhibition worked out at 11.3%.
With `Cc1ccccc1NC(=O)CSc1nc2ccccc2c2nc(CCn3cncc3C)nn12`, the inhibition is -1.23%.
With `N#Cc1c(C(F)(F)F)cc(-c2ccc(F)cc2)nc1SCC(=O)Nc1ccccc1`, the inhibition is -2.99%.
For the compound `CCn1c(C(=O)N2CCC(C(=O)NCCc3ccc(C)cc3)CC2)cc2sccc21`, the inhibition was -9.28%.
`Cc1ccc(Cn2ccnc2SCC(=O)NCc2ccccc2Cl)cc1`: the inhibition worked out at 13%.
As to `Cc1ccc(CNC(=O)C(C)n2nc(C)n3c(cc4sccc43)c2=O)cc1` (stereo not given), the inhibition was -3.61%.
For `Cc1ccc(S(=O)(=O)N(CC(=O)Nc2ccc(Cl)cc2Cl)c2ccccc2C)cc1`, the inhibition is -4.73%.

The inhibition is the relative decrease from the control value, in per cent.

Source of the values: PubChem BioAssay AID485344 (National Center for Advancing Translational Sciences (NCATS), 2010).
